48 compounds from PubChem BioAssay AID1508623 (National Center for Advancing Translational Sciences (NCATS), 2021) can be followed below.

Out of some 48,000 compounds screened, about 450 (0.94%) were called active. About 19% were inconclusive and are not listed. The call rests on the fitted dose curve; in most records, active means well fitted inhibition curve with a large enough effect; inconclusive means small, poorly fitted or top-dose-only effect; inactive means no such curve, though single readings can be large or run the other way. The list shows a part of the results.

The nature of the assay: Primary qHTS for Identification of Small Molecule Inhibitors of Huntingtin Promoter Activity. Further: nearly all actives have a fitted effect of over 50% in size. The settings on record: HEK293 HTT promoter firefly luciferase reporter (activity 0% = vehicle and -100% = no light), 24 h; series mostly up to 57.5 µM; activity change, negative = inhibition: at the top concentration. Put shortly: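 Quantitative HTS used concentration series of up to 57.5 uM final on HEK293 luciferase reporter cells, 24 h at 37 degrees C. Readout was Dual-Glo firefly luminescence.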
Consider `CC(C)Oc1ccc(CNC(=O)Cn2nc(N3CCN(c4ccccc4)CC3)ccc2=O)cc1`, for which the “activity change, negative = inhibition” value was inactive: -15.2%.

For `Cn1cc(S(=O)(=O)N2CCOCC2)cc1C(=O)Nc1cccc(C#N)c1`, the “activity change, negative = inhibition” value was inactive: -2.09%.

On to `CCC(=O)N1CCc2cc(OC)c(OC)cc2C1COc1ccc2c(C)cc(=O)oc2c1` (stereo not drawn), for which the “activity change, negative = inhibition” value is inactive: -13.3%.

With `CC(C)c1ccc(CNc2n[nH]c(-c3ccco3)n2)cc1`, the “activity change, negative = inhibition” value was inactive: 30.3%.

As to `COCCNC(=O)C1=CC(c2ccc3c(c2)OCO3)=NS(=O)(=O)N1C`, the “activity change, negative = inhibition” value was inactive: -15.2%.

Consider `COc1ccc(C2c3c(n(C)c4ccccc34)C(=O)N2CC(=O)Nc2ccc(F)cc2)cc1` (stereo not drawn), for which the “activity change, negative = inhibition” value is inactive: -20.6%.

Turning to `Cc1ccc(C(=O)c2oc3ccccc3c2NC(=O)Cc2ccccc2)cc1`, the “activity change, negative = inhibition” value is inactive: -4.55%.

Regarding `Cc1ccc(CSc2nc(-c3ccccc3C)nc3c2Cc2c(CO)cnc(C)c2O3)cc1`, the “activity change, negative = inhibition” value is inactive: -12.4%.

For the compound `COc1ccc(-c2ccc(=O)n(CC(=O)Nc3ccc(OC)c(OC)c3)n2)cc1`, the “activity change, negative = inhibition” value is inactive: -28%.

In the case of `CCOc1ccc(-c2nc(SCC(=O)Nc3cc(F)ccc3F)n3[nH]c(=O)cc3n2)cc1`, the “activity change, negative = inhibition” value was inactive: -4.78%.

For the compound `CCn1nnc2cc(C(=O)Nc3ccc(Br)cc3F)ccc21`, the “activity change, negative = inhibition” value is inactive: 21.4%.

As for `CCOC(=O)c1c(S(=O)(=O)N2CCC(C(=O)N3CCN(c4ccc(F)cc4)CC3)CC2)c(C)n(C)c1C`, the “activity change, negative = inhibition” value was inactive: -12.5%.

With `Cn1ncc2c(NCc3ccc(F)cc3)ncnc21`, the “activity change, negative = inhibition” value is inactive: -10.3%.

As for `Cc1ccc(NC(=O)C2CCCN2S(=O)(=O)c2ccc3c(c2)n(C)c(=O)c(=O)n3C)cc1C` (stereo not drawn), the “activity change, negative = inhibition” value is inactive: -12.3%.

In the case of `O=C1N(Cc2ccccc2)c2ccccc2C1(O)c1c[nH]c2ccccc12` (stereo not drawn), the “activity change, negative = inhibition” value is inactive: -20%.

In the case of `Cn1c(=O)c2c(SCC(=O)N3CCc4ccccc43)nc(-c3ccc(Cl)cc3)nc2n(C)c1=O`, the “activity change, negative = inhibition” value is inactive: -7.37%.

Turning to `CC(=O)Nc1cccc(C(=O)NCc2ccc3c(c2)CCN3C(=O)c2ccc(F)cc2)c1`, the “activity change, negative = inhibition” value is inactive: -7.84%.

Take `Cc1cc(NC(=O)c2ccc(NC(=O)CCS(=O)(=O)c3cccs3)cc2)ccc1Br`: the “activity change, negative = inhibition” value is inactive: 10.3%.

Turning to `COc1cccc(NS(=O)(=O)c2ccc3[nH]cc(C(=O)N4CCCC4)c(=O)c3c2)c1`, the “activity change, negative = inhibition” value is inactive: -3.17%.

On to `CC(=O)c1ccc(NC(=O)COCc2cc(-c3ccc(F)cc3)on2)cc1`, for which the “activity change, negative = inhibition” value is inactive: -4.36%.

On to `COc1ccccc1NC(=O)C1=C(C)Nc2nc(SCc3ccccc3)nn2C1c1ccncc1` (stereo not drawn), for which the “activity change, negative = inhibition” value was inactive: -7.21%.

For `COc1cc(OC)c(N(C)C(=O)c2sc3nc4n(c(=O)c3c2C)CCCCC4)cc1Cl`, the “activity change, negative = inhibition” value is inactive: 9.31%.

Regarding `COc1cc(NC(=O)Cn2nc3c(cc2=O)CC(C)CC3)cc(OC)c1OC` (stereo not drawn), the “activity change, negative = inhibition” value was inactive: -6.94%.

Regarding `CC(C)N(Cc1ccccc1)C(=O)CN1C(=O)CSc2ccc(S(=O)(=O)N3CCCC3)cc21`, the “activity change, negative = inhibition” value is inactive: -26.1%.

Regarding `CCn1cc(C(=O)N2CCN(c3ccc(OC)cc3)CC2)c(=O)c2cc(S(=O)(=O)N3CCOCC3)ccc21`, the “activity change, negative = inhibition” value is inactive: -1.46%.

Regarding `COc1ccc2[nH]cc(CCN=C(NC(=O)c3ccccc3C)Nc3nc(C)cc(C)n3)c2c1`, the “activity change, negative = inhibition” value was inactive: -12.1%.

With `COc1ccc(OCC(=O)Nc2ccc(-c3nc4cc(C)c(C)cc4o3)cc2)cc1`, the “activity change, negative = inhibition” value is inactive: 39.9%.

Regarding `O=C(Cn1ncc2c3ccccc3n(Cc3ccc(F)cc3)c2c1=O)NCCCN1CCCCC1`, the “activity change, negative = inhibition” value is inactive: -16.1%.

`N#Cc1c[nH]n2c(NC3CCCC3)c(-c3ccc(Cl)cc3)nc12`: the “activity change, negative = inhibition” value was inactive: -13.1%.

As for `Cc1ccccc1C(C(=O)NC1CCCCC1)N(C(=O)CNc1ccc(C#N)cc1)c1cccc(F)c1` (stereo not drawn), the “activity change, negative = inhibition” value was inactive: 7.2%.

As to `CCc1ccc(NC(=O)C(=O)NCCc2sc3nc(-c4ccc(OC)cc4)nn3c2C)cc1`, the “activity change, negative = inhibition” value is inactive: -9.83%.

Consider `Cc1ccc(CNc2nc3ccc(C)cc3n3nnnc23)cc1`, for which the “activity change, negative = inhibition” value was inactive: -6.52%.

Regarding `O=C(CCS(=O)(=O)c1cccc2nonc12)Nc1ccc(Br)cc1`, the “activity change, negative = inhibition” value was inactive: -24.4%.

Turning to `CC1=C(C(=O)Nc2ccccc2)C(c2ccc(O)cc2)n2nc(SCc3ccccc3)nc2N1` (stereo not drawn), the “activity change, negative = inhibition” value is inactive: -1.04%.

On to `COc1ccc(Cl)cc1NC(=O)CCn1c(=O)oc2ccccc21`, for which the “activity change, negative = inhibition” value is inactive: -8.55%.

Take `Cc1ccccc1NC(=O)CSc1ccc(-c2cccs2)nn1`: the “activity change, negative = inhibition” value was inactive: -7.09%.

With `O=c1[nH]c(SCc2ccc([N+](=O)[O-])cc2)nc2c1CCCC2`, the “activity change, negative = inhibition” value is inactive: -20.6%.

Take `O=C(CSc1nccn1Cc1ccccc1)Nc1ccc2c(c1)OCCO2`: the “activity change, negative = inhibition” value is inactive: 21.7%.

On to `O=C(CSc1nnc(COc2ccccc2)o1)Nc1cc(C(F)(F)F)ccc1Cl`, for which the “activity change, negative = inhibition” value was inactive: -9.79%.

With `Cc1ccc(CNC(=O)Cn2cccc2C(=O)c2ccccc2C)cc1`, the “activity change, negative = inhibition” value was inactive: 20.2%.

For `Cc1cccc(OCC(=O)Nc2nonc2-c2ccc(Br)cc2)c1C`, the “activity change, negative = inhibition” value is inactive: -30.1%.

Regarding `CCOc1ccc(CC(=O)Nc2ccc3c(c2)N(C)C(=O)c2ccccc2S3)cc1OCC`, the “activity change, negative = inhibition” value was inactive: -17.8%.

On to `O=C(COc1ccc(Cl)cc1)Nc1sc2c(c1C(=O)Nc1cccc(Cl)c1)CCCC2`, for which the “activity change, negative = inhibition” value is inactive: -4.44%.

Consider `Cc1cccc(C)c1-n1ncc(C(=O)NCc2ccc3c(c2)OCO3)c1C1CCN(C(=O)OC(C)(C)C)CC1`, for which the “activity change, negative = inhibition” value is inactive: -18.2%.

Turning to `CCc1ccc(OCC(=O)N(Cc2ccc(C)cc2)Cc2ccco2)cc1`, the “activity change, negative = inhibition” value is inactive: -23.9%.

On to `O=C(Nc1ccc(OC(F)(F)F)cc1)C1CCCN(S(=O)(=O)c2cccc3nonc23)C1` (stereo not drawn), for which the “activity change, negative = inhibition” value is inactive: -19.1%.

For `CCCCN(C)CCCNC(=O)c1cc(=O)[nH]c2ccc(S(=O)(=O)N3CCCCC3)cc12`, the “activity change, negative = inhibition” value was inactive: -8.92%.

Regarding `CCC1=Nc2cc(C(=O)NC(C)c3ccccc3)ccc2Sc2ccc(Cl)cc21` (stereo not drawn), the “activity change, negative = inhibition” value was inactive: -16.9%.
